Screen size: about 360,000 compounds; about 740 (0.21%) were called active. Inconclusive results, whose numbers are uncertain, are shown with a selection of clear calls. Calls come from the whole dose curve; as a rule, active = well fitted inhibition curve with a large enough effect; inconclusive = small, poorly fitted or top-dose-only effect; inactive = no such curve, though single readings can be large or run the other way. No potency is given beside an inconclusive call; the fits are too rough.
system: Plasmodium falciparum AMA1 (3D7) - RON2 peptide interaction; test: qHTS for Inhibitors of AMA1-RON; Towards Development of Antimalarial Drug Lead: Primary Screen; conditions: AlphaScreen AMA1-biotinylated RON2 peptide binding; activity change, negative = inhibition: at 58.2 µM (top of the series) unless noted; note: nearly all actives have a fitted effect of over 45% in size;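 for activity change, negative = inhibition: 0% = vehicle wells and -100% = peptide control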
Outline: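 AMA1 (3D7) with his tag at 25 nM final met compounds first, then biotinylated RON2 peptide at 25 nM; detection used donor plus acceptor beads, 10 µg/mL apiece, read by AlphaScreen after 30 min at room temperature.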
Potency is the fitted concentration of half-maximal effect; tags give direction and shape of the fitted curve.

Compound | Potency | activity change, negative = inhibition
CCn1c2ccccc2c2cc(C#N)c(N)nc21 | inactive | –
CN1C(=O)[C@H]2[C@@H](/C=C/c3ccccc3)N3C(=O)CN(Cc4ccc(-c5ccccc5)cc4)C(=O)[C@@]3(Cc3ccccc3)[C@H]2C1=O | inconclusive [inhibitor, single point] | –
CCOc1ccc(Cl)cc1S(=O)(=O)N1CCC(C(=O)NC2CC2)CC1 | inactive | –
Cc1nnc(Sc2cc(C(=O)NCCCN(C)Cc3ccccc3)c3ccccc3n2)s1 | inactive | –
Cc1ccc(OCC(=O)NC2=NCCS2)cc1 | inconclusive [inhibitor, single point] | –
COc1cc(Sc2ccc(C)cc2)c(OC)cc1N | inconclusive [inhibitor, partial curve] | –
Cc1ccc(N2C(=O)C3CCCN3C2=S)cc1 (centres undefined) | inconclusive [inhibitor, single point] | –
COc1ccc(N2CCN(C(CNS(=O)(=O)c3ccc(C)cc3)c3ccccc3)CC2)cc1 (centres undefined) | inconclusive [inhibitor, partial curve] | –
Oc1ccc(CN2CCN(c3ncccn3)CC2)cc1 | inconclusive [inhibitor, single point] | –
CN1CCCC(CC2Oc3ccccc3Sc3ccccc32)C1 (centres undefined) | inactive | –
O=c1ccc2ccc(Oc3ccc(Cl)cc3[N+](=O)[O-])cc2o1 | inconclusive [inhibitor, single point] | –
COc1ccc(/C=N/Nc2cc(N(C)C)nc(N(C)C)n2)cc1 | inconclusive [inhibitor, partial curve, poor fit] | –
C/C(=N\NC(=O)c1ccncc1)c1ccc(NC(=O)c2ccc(Cl)cc2)cc1 | inactive | –
Cc1cccc(C(C(=O)NC2CCCC2)N(C(=O)c2csnn2)C2CC2)c1 (centres undefined) | inactive | –
CCN(CC)C(=O)C1CCCN(Cc2ccc3c(c2)OCO3)C1 (centres undefined) | inconclusive [inhibitor, partial curve] | –
CN(c1ccccc1)S(=O)(=O)c1cccc(C(=O)Nc2ccc3c(c2)CCC3)c1 | inactive | –
Cc1cccc(NC(=S)c2nc3ccccc3s2)c1 | inconclusive [inhibitor, single point] | –
O=C(CNCc1cccc2ccccc12)Nc1ccccc1[N+](=O)[O-] | inconclusive [inhibitor, partial curve] | –
Cc1c(C#N)c(O)[nH]c(=O)c1N=Nc1ccc(S(N)(=O)=O)cc1 | inconclusive [inhibitor, partial curve] | –
CCN(CC)C(=O)CSc1nnc(-c2cccc(OC)c2)o1 | inconclusive [inhibitor, single point] | –
O=c1c(O)c(-c2cc(O)c(O)c(O)c2)oc2cc(O)cc(O)c12 | inconclusive [inhibitor, full curve, poor fit] | –
CN(C)CC#Cc1cccc(-c2nc(C(=O)O)cc3c2[C@@H](CCO)N(S(=O)C(C)(C)C)C3)c1 (some centres undefined) | inconclusive [inhibitor, partial curve] | –
CC(C)Sc1snnc1-c1ccccc1 | inactive | –
O=C(CSc1nc2ccccc2o1)NCc1ccc2c(c1)OCO2 | inactive | –
O=C(NNC(=O)c1ccccc1C(=O)O)c1cc2ccccc2o1 | inactive | –

Compound | Potency | activity change, negative = inhibition
CCC(=O)N1CCC(C)(C(=O)Nc2ccc(OC)c(OC)c2)C1 (centres undefined) | inactive | –
COCCNC(=O)Nc1ccc2nc(-c3ccco3)c(-c3ccco3)nc2c1 | active: 7.08 µM | –
C[C@H](NC(N)=O)C(=O)OCC(=O)NCc1cccs1 | inconclusive [inhibitor, single point] | –
Cc1ccc(S(=O)(=O)N2CCC(C(=O)N[C@@H](C)C(=O)Nc3ccc(F)cc3)CC2)cc1 | inactive | –
O=c1c(O)cccc2cc(O)c(O)c(O)c12 | active: 2.51 µM | –
COc1cc(/C=N/N2CCOCC2)ccc1OCc1ccc(Cl)cc1 | inconclusive [inhibitor, partial curve] | –
Cc1cc(C)nc(N/N=C/c2ccco2)n1 | inactive | –
C[n+]1c2ccccc2nc2ccc(NCCO)cc21 | active: 20 µM | –
COc1cc(NC2c3ccccc3C(=O)N2Cc2ccccc2)cc(OC)c1OC (centres undefined) | inconclusive [inhibitor, partial curve] | –
COc1ccc(NC(=O)NNC(=O)C(C)Oc2ccc(C(C)C)cc2)c(OC)c1 (centres undefined) | inactive | –
COc1cccc(N2CCN(Cc3ncc(-c4ccccc4)o3)CC2)c1 | inconclusive [inhibitor, single point] | –
CC(C)(C)c1cc(C(=O)NNc2cccc(Cl)c2)n(Cc2ccccc2)n1 | inconclusive [inhibitor, single point] | –
CCN(CC)CCCNC(=O)c1ccc(OCC(=O)Nc2ccccc2C(F)(F)F)c(OC)c1 | inactive | –
CC(=O)N(CCC(Cc1ccccc1)c1ccc2c(c1)OCO2)Cc1ccc(Cl)cc1 (centres undefined) | inconclusive [inhibitor, full curve, poor fit] | –
CNC(=O)CSc1nnc(-c2ccccn2)n1Cc1ccco1 | inactive | –
CN1CCN(c2ccc(NC(=O)c3ccc(-c4ccc(Cl)cc4)o3)cc2)CC1 | inconclusive [inhibitor, partial curve] | –
O=C(Cc1cccs1)NCc1ccccc1Br | inactive | –
Cc1cc(C)c(NC(=O)CSc2nnc(-c3ccccn3)n2N)c(Cl)c1 | active: 17.8 µM | –
COc1ccc(-c2csc(Nc3ccccc3)[n+]2CC(O)c2ccc([N+](=O)[O-])cc2)cc1 (centres undefined) | inconclusive [inhibitor, partial curve] | –
CC(Cc1ccccc1)N1C(=O)c2ccccc2C1=O (centres undefined) | inactive | –
COc1ccc([C@H]2C[C@@H](n3cc(COC(=O)c4ccccc4)nn3)[C@H](O)CN2Cc2cccs2)cc1 | inactive | –
COc1ccc(S(=O)(=O)n2oc(=O)cc2-c2ccccc2)cc1OC | inconclusive [inhibitor, single point] | –
CN(C)CCN(C(=O)/C=C/c1cccs1)c1nc2c(F)cc(F)cc2s1 | inconclusive [inhibitor, partial curve] | –
COc1cc([C@H](Cc2ccccc2)NC(C)=O)oc(=O)c1 | inconclusive [inhibitor, partial curve] | –
CCNc1nc(-c2ccc(OC(F)F)cc2)c(C)s1 | inactive | –

Compound | Potency | activity change, negative = inhibition
COc1ccc(NC(=O)c2cccc(Oc3ccc([N+](=O)[O-])cc3Cl)c2)cc1 | – | inconclusive: -31.6% [inhibitor]
CC(C)CCNC(=O)C12CN(Cc3ccccc3)CC1C(c1ccc([N+](=O)[O-])cc1)=NO2 (centres undefined) | inconclusive [inhibitor, single point] | –
Clc1ccc(-c2cnc3n2CCC3)cc1 | inconclusive [inhibitor, full curve, poor fit] | –
COc1c(C(=O)Nc2ccc3[nH]c(=O)[nH]c3c2)cc2ccccc2c1Br | inconclusive [inhibitor, partial curve] | –
COc1cc(C(=O)OCc2ccc(C)cc2)cc(NC(=O)c2cccs2)c1OC | inactive | –
COc1cc(NC(=S)NC(=O)c2ccc(C(C)(C)C)cc2)ccc1NC(=O)c1cccs1 | inactive | –
O=C(Cc1ccccc1)N1CCN(Cc2cccc(Br)c2)CC1 | inconclusive [inhibitor, partial curve] | –
CCNc1nc(NCC)nc(C(=O)NN)n1 | inconclusive [inhibitor, single point] | –
Cc1cc2c(cc1C)N[C@]1(C[C@H]3CCCC(=O)N4CC[C@@H](C1)[C@@H]34)C(=NC(C)(C)CC(C)(C)C)N2 | inconclusive [inhibitor, partial curve] | –
COc1ccc(NCc2ccsc2)cc1 | inconclusive [inhibitor, single point] | –
CC1(C)Cc2ccccc2/C(=C/C(=O)c2ccccc2)N1 | inconclusive [inhibitor, single point] | –
CCN(CC)c1ccc(CNCCc2ccccc2F)cc1 | inconclusive [inhibitor, partial curve] | –
CC1CC(Nc2ccccc2)c2ccccc2N1C(=O)c1ccco1 (centres undefined) | inconclusive [inhibitor, single point] | –
COc1cccc(C(=O)COC(=O)CCC(=O)c2ccccc2)c1 | inactive | –
Cc1ccc(-c2ccc(/C=N/N3C(=O)C4C5C=CC(C6CC56)C4C3=O)o2)c([N+](=O)[O-])c1 (centres undefined) | inconclusive [inhibitor, full curve, poor fit] | –
C1CSC2(N1)C1CC3CC2CC(C1)C31NCCS1 (centres undefined) | inactive | –
c1ccc(COc2nsnc2N2CCOCC2)cc1 | inconclusive [inhibitor, partial curve] | –
CCOC(=O)Cn1nc(-c2ccccc2)c2ccccc2c1=O | inconclusive [inhibitor, single point] | –
Cc1nn(C)c(C)c1CN(C)C(=O)CCCC(=O)O | inconclusive [inhibitor, partial curve, poor fit] | –
CCCOc1ccc(N2C(=O)CC(N(Cc3ccc(OC)cc3)C(=S)Nc3ccccc3)C2=O)cc1 (centres undefined) | inconclusive [inhibitor, full curve, poor fit] | –
CCc1cc2cc(C)cc(C)c2[nH]c1=S | inactive | –
COc1cc(CNc2ccc3c(c2)CCC3)cc(OC)c1O | inconclusive [inhibitor, single point] | –
CCN(Cc1ccccc1)C(=O)c1ccc(NC(=O)c2ccc(OC)cc2)cc1 | inactive | –
Cc1cccc(COc2ccc(/C=N/NC(=O)c3nnn(-c4nonc4N)c3COc3ccc(F)cc3)cc2)c1 | inactive | –

Source: PubChem BioAssay AID720542 (National Center for Advancing Translational Sciences (NCATS), 2013)
